# Inconclusive results, whose numbers are uncertain, are shown with a selection of clear calls. For some of these results: No potency is given beside an inconclusive call; the fits are too rough. The source made the active and inactive calls. Unless noted, calls follow the shape of the dose curve; as a rule, active = well fitted curve in either direction with a large enough effect (not every such curve was filed as active); inconclusive = small, poorly fitted or top-dose-only effect, or another doubt; inactive = flat fitted curve, though single readings scatter.
# Tests used:
# [1] = AP1 Signaling Pathway (AID 357); details: ME-180 AP-1-bla reporter, EGF-induced, beta-lactamase ratio, 5 h; at 17.2 µM (top of the series) unless noted;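 also: ME-180 reporter cells stimulated with EGF at its EC50 level; top concentration of the series differs between compounds; % is scaled to controls: 0 for no effect and ±100 for the full control effect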
# Procedure, shortened: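 First, ME-180 AP-1-bla cells were cultured overnight at 37 °C in low-serum Opti-MEM. Next, titrated compounds with EC50 EGF were incubated 5 hours. Finally, CCF4 was added for 2.5 hours and the 460/530 nm ratio recorded.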
# [2] = target: Cytochrome P450 1A2 (Homo sapiens) (UniProt P05177); assay: p450-cyp1a2 (AID 410; calls by dose curve; also: potency is read from the fitted curve at half-maximal effect;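 as to activity change, negative = inhibition: top concentration of the series differs between compounds; -100% = full effect of reference inhibitor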)
# Sequence of UniProt P05177 (P05177 whole entry, looked up): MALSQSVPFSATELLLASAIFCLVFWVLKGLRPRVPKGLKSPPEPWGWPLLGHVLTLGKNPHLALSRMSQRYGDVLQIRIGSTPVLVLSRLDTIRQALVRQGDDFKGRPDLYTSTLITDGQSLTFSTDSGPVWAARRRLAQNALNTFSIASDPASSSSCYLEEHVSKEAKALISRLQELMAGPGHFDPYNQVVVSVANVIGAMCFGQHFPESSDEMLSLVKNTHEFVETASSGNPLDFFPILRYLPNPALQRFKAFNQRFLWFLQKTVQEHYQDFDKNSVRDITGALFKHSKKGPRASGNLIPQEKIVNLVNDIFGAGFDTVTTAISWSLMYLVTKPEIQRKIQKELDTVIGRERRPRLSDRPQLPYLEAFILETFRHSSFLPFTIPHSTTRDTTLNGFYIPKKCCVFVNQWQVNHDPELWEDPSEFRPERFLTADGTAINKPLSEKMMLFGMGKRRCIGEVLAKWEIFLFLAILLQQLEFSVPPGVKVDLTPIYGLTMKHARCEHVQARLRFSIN
# Procedure, shortened: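 20nM CYP1A2, 100uM Luciferin-ME (=Km), 100mM KPO4; cpd 10 min RT; +NADPH regen, 60 min RT; stop/detect 20 min; luminescence. Normalized to furafylline 57 uM = full inhibition.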
# [3] = target: Cytochrome P450 2C19 (Homo sapiens) (UniProt P33261); assay: qHTS Assay for Inhibitors and Substrates of Cytochrome P450 2C19 (AID 899; active = well fitted inhibition curve with a large enough effect; inconclusive = small, poorly fitted or top-dose-only effect; inactive = no such curve, though single readings can be large or run the other way; also: potency is read from the fitted curve at half-maximal effect; nearly all actives have a fitted effect of over 60% in size)
# Sequence of UniProt P33261 (P33261 whole entry, looked up): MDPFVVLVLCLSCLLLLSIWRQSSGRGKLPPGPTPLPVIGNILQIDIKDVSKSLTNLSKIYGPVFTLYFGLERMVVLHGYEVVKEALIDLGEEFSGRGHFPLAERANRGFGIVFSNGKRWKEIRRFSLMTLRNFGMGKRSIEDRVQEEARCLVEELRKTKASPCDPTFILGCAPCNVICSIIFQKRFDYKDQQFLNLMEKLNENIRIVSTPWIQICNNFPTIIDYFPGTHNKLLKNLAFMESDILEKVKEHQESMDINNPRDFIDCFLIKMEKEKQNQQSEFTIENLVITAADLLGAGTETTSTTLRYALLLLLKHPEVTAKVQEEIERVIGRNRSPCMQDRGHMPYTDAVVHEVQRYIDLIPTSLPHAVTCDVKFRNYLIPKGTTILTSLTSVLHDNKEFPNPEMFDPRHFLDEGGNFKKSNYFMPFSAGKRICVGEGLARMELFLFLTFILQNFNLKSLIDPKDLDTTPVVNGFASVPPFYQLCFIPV
# Procedure, shortened: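 Signal comes from luciferase acting on luciferin released by CYP2C19-mediated hydroxylation of Luciferin-H EGE, 10uM (KM). Assay mix: 5nM enzyme, 50mM KPO4; 60 min at 37C with NADPH regeneration. Data normalized against 57uM ketoconazole.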
# [4] = qHTS Assay for Identification of Small Molecule Antagonists for NFkB Signaling Pathway (AID 895; active = well fitted inhibition curve with a large enough effect in the signal ratio, with a control signal flat, not every such curve was filed as active; inconclusive = small, poorly fitted or top-dose-only effect, or effect the other way, or a change in a side signal; the % refers to the signal ratio; also: % is scaled to controls: 0 for no effect and ±100 for the full control effect); details: NFkB beta-lactamase reporter cells, FRET ratio 460/530, stimulated with 10 pM TNF alpha; activity change, negative = inhibition: at 38.3 µM (top of the series)
# Procedure, shortened: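 ME-180 NFkB-bla cells (beta-lactamase under NFkB response element), plated overnight, treated with compound then 10 pM TNF alpha (about EC50) for 5 hrs at 37 C. LiveBLAzer FRET read at 460/530 nm emission, 405 nm excitation.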
# [5] = target: Muscarinic acetylcholine receptor M1 (Rattus norvegicus) (UniProt P08482); assay: qHTS Assay for Antagonists of Acetylcholine Muscarinic M1 Receptor: Kinetic Measurement of Intracellular Calcium Response (AID 943; active = well fitted inhibition curve with a large enough effect; inconclusive = small, poorly fitted or top-dose-only effect; inactive = no such curve, though single readings can be large or run the other way; also: potency is read from the fitted curve at half-maximal effect; nearly all actives have a fitted effect of over 75% in size)
# Sequence of UniProt P08482 (P08482 whole entry, looked up): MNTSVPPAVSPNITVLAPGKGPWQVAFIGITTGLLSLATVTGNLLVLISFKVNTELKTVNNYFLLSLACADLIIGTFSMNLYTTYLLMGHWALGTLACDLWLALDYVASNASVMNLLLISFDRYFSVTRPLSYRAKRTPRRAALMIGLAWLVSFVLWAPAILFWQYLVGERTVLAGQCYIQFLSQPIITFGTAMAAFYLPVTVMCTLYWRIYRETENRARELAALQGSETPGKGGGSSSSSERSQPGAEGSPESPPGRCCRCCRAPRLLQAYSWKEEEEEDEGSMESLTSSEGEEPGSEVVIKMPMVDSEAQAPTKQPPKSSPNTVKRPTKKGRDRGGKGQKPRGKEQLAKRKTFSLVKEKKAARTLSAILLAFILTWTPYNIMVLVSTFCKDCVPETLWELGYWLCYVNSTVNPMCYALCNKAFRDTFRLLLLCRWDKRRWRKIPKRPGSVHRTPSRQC
# Procedure, shortened: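 Read-out: peak over basal Fluo-4 fluorescence, kinetic at 1 Hz for 4 min after EC80 carbachol (100 nM final). Rat M1-CHO cells, dye loaded 1 h at 37C, compound added 10 min before agonist.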
# [6] = NFAT Signaling Pathway (AID 444); details: Jurkat NFAT-bla M1, carbachol, beta-lactamase ratio, 5 h; at 17.2 µM (top of the series) unless noted;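 also: carbachol stimulus at about its EC50 of 1 µM final; % is scaled to controls: 0 for no effect and ±100 for the full control effect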
# Procedure, shortened: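 Jurkat cells with NFAT-driven β-lactamase reporter and co-expressed M1 receptor, stimulated with carbachol (final 1 uM, ~EC50), compound titration, 5 h at 37 °C. CCF4 loaded 1 h at RT; 460/530 nm ratio gave %activity and AC50.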
# [7] = target: Glucocorticoid receptor (Homo sapiens) (UniProt P04150); assay: GR-EFC Redistribution (AID 451; calls by dose curve; also: potency is read from the fitted curve at half-maximal effect); details: CHO-K1 GR-EFC translocation, beta-gal luminescence, 2 h
# Sequence of UniProt P04150 (P04150 whole entry, looked up, the tested form may be a part): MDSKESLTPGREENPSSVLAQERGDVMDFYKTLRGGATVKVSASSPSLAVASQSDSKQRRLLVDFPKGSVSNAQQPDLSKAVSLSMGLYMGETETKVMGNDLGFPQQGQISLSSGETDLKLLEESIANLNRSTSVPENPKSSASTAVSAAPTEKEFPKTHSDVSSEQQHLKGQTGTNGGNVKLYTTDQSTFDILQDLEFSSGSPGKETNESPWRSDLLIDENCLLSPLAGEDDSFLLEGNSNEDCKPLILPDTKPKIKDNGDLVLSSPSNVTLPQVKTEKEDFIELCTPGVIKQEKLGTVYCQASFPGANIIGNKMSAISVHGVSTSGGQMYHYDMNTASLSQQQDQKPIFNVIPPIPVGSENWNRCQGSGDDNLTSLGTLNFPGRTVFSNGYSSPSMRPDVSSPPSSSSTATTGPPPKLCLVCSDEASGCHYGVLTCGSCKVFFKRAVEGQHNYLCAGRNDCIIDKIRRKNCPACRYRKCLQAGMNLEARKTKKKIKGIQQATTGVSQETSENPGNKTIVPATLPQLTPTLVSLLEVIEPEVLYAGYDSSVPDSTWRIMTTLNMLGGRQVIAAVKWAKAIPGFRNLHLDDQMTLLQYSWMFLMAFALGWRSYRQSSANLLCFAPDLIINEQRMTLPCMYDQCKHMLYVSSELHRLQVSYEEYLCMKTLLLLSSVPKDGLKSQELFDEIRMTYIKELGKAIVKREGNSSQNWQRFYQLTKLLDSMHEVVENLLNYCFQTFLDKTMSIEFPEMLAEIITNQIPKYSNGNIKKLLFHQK
# Procedure, shortened: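 CHO-K1 cells expressing nuclear EA and GR-ED fragments of b-gal; compounds titrated up to 46 uM final, 2 h at 37 C. GR nuclear translocation read as complemented b-gal luminescence after 1 h RT detection.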
# Tags tell the direction and shape of the fitted curve.
smiles,measurement,setting,value
NCCSc1nc(-c2ccccc2)c(-c2ccccc2)o1,"activity change, negative = inhibition",[1],inactive: 2.27% [at 7.69 µM]
same,Potency,[2],inconclusive [decreasing]
same,Potency,[3],"inconclusive [inhibitor, full curve, poor fit]"
COc1cc2c(cc1OC)[C@H](c1ccccc1)CN(C)CC2,"activity change, negative = inhibition",[1],inactive: -2.12% [at 38 µM]
same,Potency,[2],inactive
same,Potency,[4],inactive
same,Potency,[5],"inconclusive [inhibitor, partial curve, poor fit]"
COCC(=O)N1CCC[C@@]2(CCN(Cc3ccccc3)C2)C1,"activity change, negative = inhibition",[1],inactive: -0.884% [at 7.69 µM]
same,Potency,[2],inactive
same,"activity change, negative = inhibition",[6],inactive: 19.9% [at 7.69 µM]
same,Potency,[7],inconclusive [single point]
N#CC1=C(N)NC(SCc2ccc(F)cc2)=C(C#N)C12CCCCC2,"activity change, negative = inhibition",[1],inconclusive: -42.9% [inhibitor]
same,"activity change, negative = inhibition",[6],inconclusive: -83.2% [inhibitor]
